# Test results taken from the BET-seq Pho4 binding data (Le et al. 2018).
# This is one part of the list. These are noisy estimates, calculated here from bound and input reads.
# Target: T1, Pho4 (S. cerevisiae) (UniProt P07270)
# T1 sequence: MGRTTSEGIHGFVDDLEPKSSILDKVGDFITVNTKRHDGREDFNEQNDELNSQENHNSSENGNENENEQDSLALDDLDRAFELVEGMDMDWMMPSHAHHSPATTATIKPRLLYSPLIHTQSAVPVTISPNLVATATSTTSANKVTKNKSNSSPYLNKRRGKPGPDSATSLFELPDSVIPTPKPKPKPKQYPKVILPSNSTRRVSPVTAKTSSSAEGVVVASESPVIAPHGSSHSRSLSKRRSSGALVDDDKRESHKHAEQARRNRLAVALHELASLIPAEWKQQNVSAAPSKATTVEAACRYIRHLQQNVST
# Assay: relative binding free energy (BET-seq); higher = weaker binding
# Settings: reference: library average
row,Sequence,relative binding free energy
1,CGGGGCACGTGAATTG,0.15 kcal/mol
2,GATCGCACGTGGGGAT,-0.12 kcal/mol
3,CGTGACACGTGCGGGT,-0.12 kcal/mol
4,AAGTTCACGTGGATGC,0.25 kcal/mol
5,GGGTCCACGTGTTGTT,0.08 kcal/mol
6,TGATGCACGTGGTTAA,-0.19 kcal/mol
7,ATGGGCACGTGGGTAT,-0.2 kcal/mol
8,GAGATCACGTGTTGTG,0.08 kcal/mol
9,TAGGACACGTGTTGAT,0.06 kcal/mol
10,GTTGGCACGTGGGTAT,-0.1 kcal/mol
11,GTCTACACGTGGTCTT,0.18 kcal/mol
12,GTTGCCACGTGAAGGT,0.17 kcal/mol
13,AGTATCACGTGCATGG,0.1 kcal/mol
14,TTAAGCACGTGACTGG,0.05 kcal/mol
15,TTCTGCACGTGGGGTG,-0.17 kcal/mol
16,GTTGACACGTGTGGGA,0.15 kcal/mol
17,TAGCTCACGTGAGTGA,0.46 kcal/mol
18,GTCTTCACGTGAGGAG,0.39 kcal/mol
19,ATGTTCACGTGATGGA,0.27 kcal/mol
20,ATTCGCACGTGGAGTT,0.07 kcal/mol
21,CATGTCACGTGTGTGG,0.05 kcal/mol
22,TTAGTCACGTGTGCCG,0.04 kcal/mol
23,TGTGCCACGTGATGTG,-0.01 kcal/mol
24,AGGTACACGTGTGGAG,0.08 kcal/mol
25,GAGCTCACGTGTGGTG,0.27 kcal/mol

row,Sequence,relative binding free energy
1,GATGTCACGTGGGGAC,0.01 kcal/mol
2,TAGTGCACGTGTCCAG,0.11 kcal/mol
3,GTTCTCACGTGGTGCT,0.27 kcal/mol
4,TAAAGCACGTGTGAGG,0.05 kcal/mol
5,AGATGCACGTGGGAGA,-0.08 kcal/mol
6,TTATACACGTGATATT,0.21 kcal/mol
7,TGCAGCACGTGGTGGA,-0.21 kcal/mol
8,TTGGGCACGTGCAGTA,-0.08 kcal/mol
9,TATTGCACGTGGACTT,-0.13 kcal/mol
10,AATGGCACGTGCGGAT,-0.17 kcal/mol
11,AATTTCACGTGAGGAA,0.35 kcal/mol
12,ATATCCACGTGTTTTG,-0.07 kcal/mol
13,GGCTGCACGTGAAGGT,0.19 kcal/mol
14,TTGAACACGTGAGTTT,0.2 kcal/mol
15,CATTACACGTGTTGGG,0.08 kcal/mol
16,TGATACACGTGGGTGA,0 kcal/mol
17,TTAGGCACGTGCGTCT,-0.16 kcal/mol
18,TGTAACACGTGTGTTA,0 kcal/mol
19,TGTAGCACGTGTTCGT,0.1 kcal/mol
20,TAAGACACGTGTGTAA,0.03 kcal/mol
21,TTGAACACGTGTACGG,0.02 kcal/mol
22,GAAAGCACGTGGTTGT,-0.16 kcal/mol
23,TGGGACACGTGTCATT,0.01 kcal/mol
24,GTATACACGTGCTGTG,0.01 kcal/mol
25,TGATTCACGTGGAAGA,0.24 kcal/mol

row,Sequence,relative binding free energy
1,GTGGACACGTGCGGTT,0.1 kcal/mol
2,GATAGCACGTGAAGGG,0.11 kcal/mol
3,GGAGTCACGTGTTGCT,0.17 kcal/mol
4,GTTCACACGTGATTTG,0.24 kcal/mol
5,CGCGGCACGTGTGGTC,0.13 kcal/mol
6,AAGGGCACGTGCCTGG,-0.21 kcal/mol
7,GGCTTCACGTGGGCTT,0.22 kcal/mol
8,TTGATCACGTGGTTTC,0.17 kcal/mol
9,TAGCGCACGTGGAGGG,-0.16 kcal/mol
10,TCAAGCACGTGGGCGG,-0.14 kcal/mol
11,GTAGTCACGTGGTTGC,0.18 kcal/mol
12,GTAGACACGTGGAATG,0.15 kcal/mol
13,TGCTTCACGTGTAGTT,0.32 kcal/mol
14,ATAAGCACGTGTGGGC,0.05 kcal/mol
15,GATGGCACGTGGGCAA,-0.14 kcal/mol
16,AGATTCACGTGTGCGG,0.14 kcal/mol
17,GTTAACACGTGGTTTC,0.01 kcal/mol
18,ATATACACGTGTATGT,-0.07 kcal/mol
19,TAAGTCACGTGTGCTA,0.1 kcal/mol
20,TATAACACGTGGCTTG,-0.08 kcal/mol
21,AATTTCACGTGTTAGT,0.29 kcal/mol
22,CGTGGCACGTGTAGTA,0.05 kcal/mol
23,TATCTCACGTGATTGG,0.28 kcal/mol
24,AGGAACACGTGTGTAA,0.08 kcal/mol
25,AGGTGCACGTGCGAAA,0.05 kcal/mol

row,Sequence,relative binding free energy
1,AAGATCACGTGTGTAT,0.04 kcal/mol
2,CAGGTCACGTGGGGGT,-0.02 kcal/mol
3,GGTAGCACGTGGTGAT,-0.05 kcal/mol
4,GGGTACACGTGTGGAT,0.1 kcal/mol
5,GCTTTCACGTGCGGGC,0.44 kcal/mol
6,CTTGTCACGTGTGTAT,0.21 kcal/mol
7,TATATCACGTGCATTA,0.2 kcal/mol
8,AGGGACACGTGTTTTG,0.06 kcal/mol
9,GTTTGCACGTGCAATT,0.03 kcal/mol
10,TATTGCACGTGGATGG,0.12 kcal/mol
11,TCAATCACGTGTTATG,0.02 kcal/mol
12,TTAGTCACGTGTTATC,0.03 kcal/mol
13,TCTGTCACGTGTGGGA,0.1 kcal/mol
14,GTGTACACGTGCGGTA,0.02 kcal/mol
15,TTGTACACGTGTGAAA,0.09 kcal/mol
16,ATGTGCACGTGGCTCG,-0.03 kcal/mol
17,AATAACACGTGGTGGG,-0.07 kcal/mol
18,ACAATCACGTGGTGTT,0.09 kcal/mol
19,AGAGTCACGTGTGGCA,0.07 kcal/mol
20,AGGGACACGTGAGTCT,0.27 kcal/mol
21,TTGCGCACGTGGTGAT,-0.22 kcal/mol
22,AAGCTCACGTGTGTTA,0.27 kcal/mol
23,GAAGACACGTGTTGAG,0.05 kcal/mol
24,GCTGGCACGTGGTAAA,0 kcal/mol
25,TCGGTCACGTGAGTTA,0.29 kcal/mol

row,Sequence,relative binding free energy
1,GGCGGCACGTGTTGTG,-0.02 kcal/mol
2,GATGCCACGTGGGTAT,-0.04 kcal/mol
3,GTTAACACGTGATAGG,0.11 kcal/mol
4,TATTGCACGTGGGTTT,-0.12 kcal/mol
5,TTATTCACGTGCTGCG,0.21 kcal/mol
6,AGGTGCACGTGTAAGG,0.03 kcal/mol
7,GTAATCACGTGGTCGG,0.01 kcal/mol
8,GATTTCACGTGATGCG,0.31 kcal/mol
9,AGTATCACGTGGAGCT,0.27 kcal/mol
10,TGGACCACGTGGGTTT,-0.19 kcal/mol
11,GTTAACACGTGTAGGC,0.09 kcal/mol
12,TGTGACACGTGAAGGT,0.3 kcal/mol
13,TTAGCCACGTGATTGA,0.22 kcal/mol
14,ATGTTCACGTGCTGGC,0.27 kcal/mol
15,ACGTTCACGTGTTTTG,0.1 kcal/mol
16,GTTGTCACGTGCCGTT,0.2 kcal/mol
17,GTTGGCACGTGTGGGA,0.09 kcal/mol
18,AAGGTCACGTGGGCTA,0.06 kcal/mol
19,ATAGACACGTGAAGAT,0.38 kcal/mol
20,AGGAGCACGTGCGTGA,-0.25 kcal/mol
21,TGGTACACGTGAATTT,0.29 kcal/mol
22,AACGGCACGTGGTTTT,-0.18 kcal/mol
23,GCGGGCACGTGTGTGA,-0.17 kcal/mol
24,GGTCTCACGTGTCAGT,0.29 kcal/mol
25,CATGTCACGTGTTCGT,-0.02 kcal/mol

row,Sequence,relative binding free energy
1,GTGAACACGTGGGATA,0.11 kcal/mol
2,TCAGCCACGTGGTGGT,-0.13 kcal/mol
3,ACGGGCACGTGCTGTG,-0.23 kcal/mol
4,GGGAGCACGTGTAGTC,-0.1 kcal/mol
5,GGTTCCACGTGGGGGT,-0.04 kcal/mol
6,GGTGGCACGTGTTATG,-0.01 kcal/mol
7,GTTTTCACGTGGGTTC,0.36 kcal/mol
8,TTGGTCACGTGTTCTT,0.08 kcal/mol
9,TTTGACACGTGGGAAG,-0.15 kcal/mol
10,AAAGTCACGTGGTGCT,0.01 kcal/mol
11,TGTACCACGTGTCGGT,0.04 kcal/mol
12,TAAGTCACGTGAATGG,0.32 kcal/mol
13,TGGAGCACGTGAACGT,0.09 kcal/mol
14,CTATTCACGTGAGTGA,0.48 kcal/mol
15,AGGGACACGTGAGAGA,0.16 kcal/mol
16,TTATGCACGTGAGTAC,0.13 kcal/mol
17,AGGTACACGTGACAGG,0.26 kcal/mol
18,AGAGCCACGTGAGGTG,0.11 kcal/mol
19,TTGCGCACGTGCTGTG,-0.26 kcal/mol
20,GCAGGCACGTGAGGGT,0.16 kcal/mol
21,TATATCACGTGTGGCA,0.06 kcal/mol
